Experimental data as given in PubChem BioAssay AID1345082 (National Center for Advancing Translational Sciences (NCATS), 2018).
Values joined by “and” are separate entries in the source; they are usually repeats but may differ in a detail not shown here. Equal values may be shown once. Hit rate of the full screen: of about 94,000 compounds, about 4,000 (4.3%) were called active. This list was built around the results that the source calls inconclusive (neither active nor inactive); the mix of calls is not that of the screen. Calls come from the whole dose curve; as a rule, active = well fitted inhibition curve with a large enough effect; inconclusive = small, poorly fitted or top-dose-only effect; inactive = no such curve, though single readings can be large or run the other way. Potencies beside an inconclusive call are fits to weak or partial responses and may not hold up.

Test: Cytotoxic Profiling in NIH 3T3 Cell Line of Diverse Libraries Using Quantitative High-Throughput Screening; note: nearly all actives have a fitted effect of over 55% in size
Details: NIH 3T3 viability, CellTiter-Glo ATP luminescence, 48-72 h; series mostly up to 96.7 µM
Summary of the method: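 Cytotoxicity was measured by CellTiter-Glo ATP luminescence after 48 or 72 h compound exposure at 37 °C. Mouse NIH 3T3 fibroblasts were seeded at 400 cells/well and dosed by 23 nL pin transfer.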
Potency is the fitted concentration of half-maximal effect; tags give direction and shape of the fitted curve.

Row | SMILES | Potency
1 | COc1ccc(CNC(=O)C(C)[C@@H]2CCc3c(C)cc(OCCN4CCOCC4)c(C)c3C2)cc1 (stereo partly drawn) | inconclusive: 89.1 µM [inhibitor, partial curve, poor fit]
2 | c1cncc(O[C@H]2COCCN(C3CCC3)C2)c1 | active: 50.1 µM
3 | CCC(=O)NC1CCN(c2cnn(CC)c(=O)c2)CC1 | inactive
4 | CC(C)CCNC(=O)c1cc(-c2ccncc2)cn1C | inconclusive: 44.7 µM [inhibitor, partial curve, poor fit]
5 | COc1ccc(CCNC(=O)c2cc3n(n2)CC(c2ccc(Cl)cc2)OC3)cc1OC (stereo not drawn) | inconclusive: 50.1 µM [inhibitor, partial curve, poor fit]
6 | O=C(NC1CC1)C1CCCN(c2nccc(Nc3ccccc3F)n2)C1 (stereo not drawn) | active: 89.1 µM
7 | Cc1ccc(-c2cc3c(=O)n(CCNC(=O)c4ccccc4F)ccn3n2)c(C)c1 | inactive
8 | COc1ccc(CCC(=O)N2CCC3(CCC3OC)CC2)cc1 (stereo not drawn) | inactive
9 | Cc1nc(N2CCC(C(=O)NC3CCc4ccccc43)CC2)cc(C(F)(F)F)n1 (stereo not drawn) | inconclusive: 28.2 µM [inhibitor, partial curve, poor fit]
10 | O=c1n(-c2ccc(C(F)(F)F)cc2)nc2n1CCN(Cc1ccsc1)C2 | inconclusive: 31.6 µM [inhibitor, partial curve]
11 | CC(C)CCN1CCC(N2CCN(C(=O)c3cc(F)cc(F)c3)CC2)C1=O (stereo not drawn) | inactive
12 | CC(C)Cn1nc2n(c1=O)CCN(S(=O)(=O)c1cc(F)ccc1F)CC2 | inactive
13 | Cc1c(C(=O)NC[C@H]2C[C@@H]3C=C[C@H]2C3)sc2ncnc(NCCc3ccccn3)c12 | inactive
14 | COc1ccc(-n2c(=O)c3c(n2Cc2ccccc2)CN(C(=O)c2cccc(O)c2)CC3)cc1 | inconclusive: 70.8 µM [inhibitor, single point]
15 | CCn1cc(S(=O)(=O)N2CC3(CCCCC3)CC2COc2ccc(OC)cc2)cn1 (stereo not drawn) | inconclusive: 28.2 µM [inhibitor, full curve]
16 | O=C(C1CCCC1)N1Cc2ccccc2CC2(CCCN(CC3CCNC3)C2)C1 (stereo not drawn) | inconclusive: 44.7 µM [inhibitor, partial curve, poor fit]
17 | O=S(=O)(NCC1CN(CC2CC2)CC12CCCCC2)c1cccs1 (stereo not drawn) | inconclusive: 50.1 µM [inhibitor, partial curve, poor fit]
18 | COc1ccc(-n2nc(C)c([C@@H]3C=C[C@@H](NC(=O)Nc4ccccc4)C3)c2C)cc1 | inconclusive: 28.2 µM [inhibitor, partial curve, poor fit]
19 | O=C(Nc1ccc(Cl)cc1)c1nc2c(o1)CCN(Cc1cccc(F)c1F)CC2 | inconclusive: 56.2 µM [inhibitor, partial curve, poor fit]
20 | Cc1cc(C(=O)Nc2ccc([C@H]3OCC(=O)N(CC(=O)N(C)C)[C@@H]3CO)cc2)n(C)n1 | inactive
21 | O=[S+]([O-])(c1cccnc1)c1nnn2c1nc(N1CCC(F)CC1)c1ccccc12 | inconclusive: 50.1 µM [inhibitor, partial curve, poor fit]

Row | SMILES | Potency
22 | CN1CC(=O)N(C2CCC2)Cc2c1ncnc2N1CCOCC1 | inactive
23 | OC[C@H]1CCN(c2nnnn2-c2ccc(Oc3ccccc3)cc2)C[C@H]1O | inconclusive: 44.7 µM [inhibitor, partial curve, poor fit]
24 | CCc1ncc(C(=O)Nc2nn(CC(F)(F)F)c3cc(OC(C)C)ccc23)cn1 | inconclusive: 56.2 µM [inhibitor, partial curve, poor fit]
25 | CCN1c2cc(C(=O)Nc3ccc(SC)cc3)ccc2C(=O)N2CCCCC21 (stereo not drawn) | active: 39.8 µM
26 | CC(C)COC(=O)N1C[C@@H](CO)[C@@H]2Oc3c(F)cccc3[C@@H]21 | active: 31.6 µM
27 | Cc1ccccc1C(=O)NC1CCN(Cc2cccc(-c3cccs3)c2)CC1 | inconclusive: 50.1 µM [inhibitor, partial curve, poor fit] and inconclusive: 14.1 µM [inhibitor, full curve, poor fit]
28 | O=C(Nc1cncnc1)C1CCN(c2nc3ncccc3o2)CC1 | inactive
29 | COc1cccc(-c2cccc(C(=O)N3CCCC3C(=O)NCc3ccccc3F)c2)c1 (stereo not drawn) | inconclusive: 56.2 µM [inhibitor, partial curve, poor fit]
30 | Cc1ccc(F)c(NC(=O)C2CN(S(=O)(=O)C3CC3)CC23CCCCC3)c1 (stereo not drawn) | inconclusive: 44.7 µM [inhibitor, partial curve, poor fit]
31 | CNC(=O)c1cc(C2CC2)nc2onc(C3CCCN3C(=O)NC(C)c3ccccc3)c12 (stereo not drawn) | inactive
32 | O=C1c2c(nc(CNCC3CCCO3)n2Cc2ccccc2)NCCN1CCOc1ccccc1 (stereo not drawn) | inconclusive: 50.1 µM [inhibitor, partial curve, poor fit]
33 | O=C(c1ccncc1)N1CCCN(c2ccnc3ccnn23)CC1 | inactive
34 | O=C(c1cccs1)N1CCC(N2C(=O)[C@H]3CN(Cc4ccccc4)C[C@H]3C2=O)CC1 | inactive
35 | O=C(c1ccccc1F)N1CCC2(CNc3ccccc3[S+](=O)([O-])N2)C1 (stereo not drawn) | inactive
36 | O=C(c1nc2sccn2c1-c1ccncc1)N1CCOCC1 | inactive
37 | O=[S+]1([O-])NC2(CCCN(Cc3cccc(C(F)(F)F)c3)C2)COc2ccccc21 (stereo not drawn) | inconclusive: 50.1 µM [inhibitor, partial curve, poor fit]
38 | CCCNC(=O)O[C@@H]1CC[C@]2(C)C(CC[C@H]3OC(=O)C[C@H]32)[C@]1(C)CO (stereo partly drawn) | inconclusive: 89.1 µM [inhibitor, partial curve]
39 | Cc1cc2cc(-c3c(C)noc3C)nc(-c3ccc([S+](C)(=O)[O-])cc3)c2o1 | inconclusive: 28.2 µM [inhibitor, full curve, poor fit]
40 | O=C(Nc1cccc(F)c1)N1Cc2[nH]cnc2C[C@H]1c1nc(-c2ccc(F)c(Cl)c2)no1 | inconclusive: 56.2 µM [inhibitor, partial curve, poor fit]
41 | O=C(NC1CCCN(c2cc(-c3ccccc3)[nH]n2)C1)c1ccccc1F (stereo not drawn) | inconclusive: 50.1 µM [inhibitor, partial curve, poor fit]
42 | CCC(CC)NC(=O)c1ccc2c(c1)N(S(C)(=O)=O)CC2 | inactive

Row | SMILES | Potency
43 | Cc1ccc(CCNC(=O)c2ccc(Cn3ccn4nc5c(c4c3=O)CCCC5)cc2)cc1 | inconclusive: 63.1 µM [inhibitor, partial curve, poor fit]
44 | COc1ccc(-c2cc(C(=O)NCc3cccnc3)c3c(c2)N(C)CCO3)cn1 | inconclusive: 112 µM [inhibitor, single point]
45 | O=C(NCCCc1ccccc1)c1n[nH]c2c1CN(C(=O)c1ccc(F)c(F)c1)CC2 | active: 35.5 µM
46 | Cc1nn(-c2ccccc2)c2c1C(C)N(C1CN(C(=O)c3ccccc3Cl)C1)C2=O (stereo not drawn) | inconclusive: 50.1 µM [inhibitor, partial curve, poor fit]
47 | O=C(NCc1ccccc1F)c1nc2cccnc2n(Cc2ccccc2)c1=O | inconclusive: 50.1 µM [inhibitor, partial curve, poor fit]
48 | Cn1cc(-c2ccc(F)c(Cl)c2)c2nc(CO)cn2c1=O | inconclusive: 79.4 µM [inhibitor, partial curve, poor fit]
49 | Cc1ccc(C(=O)N2CCCC2C(=O)N2CCCC2c2nc3ccncc3[nH]2)cc1 (stereo not drawn) | inconclusive: 70.8 µM [inhibitor, single point]
50 | CCOc1ccccc1NC(=O)C[C@H]1NC(=O)c2ccccc2NC1=O | inactive
51 | CC(C)c1ccc(S(=O)(=O)N2CCCN(C)c3ccccc32)cc1 | inconclusive: 31.6 µM [inhibitor, partial curve, poor fit]
52 | COc1ccccc1C(=O)N1CC(N2C(=O)c3c(c(C)nn3-c3ccccc3)C2C)C1 (stereo not drawn) | inconclusive: 70.8 µM [inhibitor, single point]
53 | O=S(=O)(c1ccc2c(c1)CCC2)N1CCCC1Cc1noc(-c2ccccc2)n1 (stereo not drawn) | inconclusive: 14.1 µM [inhibitor, full curve, poor fit]
54 | NC(=O)C1CCN(c2cc(-c3noc([C@@H]4CCCN4Cc4ccncc4)n3)ccn2)CC1 | inconclusive: 70.8 µM [inhibitor, partial curve, poor fit]
55 | COC[C@@H]1CN(C(=O)Cc2ccc(Cl)cc2)C[C@H]1c1ccncc1 | inconclusive: 50.1 µM [inhibitor, partial curve, poor fit]
56 | O=C(C1CCCN([S+](=O)([O-])c2cccc(C(F)(F)F)c2)C1)N1CCC(N2Cc3cccn3C2=O)CC1 (stereo not drawn) | inconclusive: 39.8 µM [inhibitor, partial curve, poor fit]
57 | N[C@H]1CN(S(=O)(=O)c2ccc(OC(F)F)cc2)C[C@@H]1C1CC1 | inactive
58 | Cc1ccc(Cn2c(C3CCN(C(=O)c4cccc(C(F)(F)F)c4)CC3)n[nH]c2=O)cc1 | inconclusive: 50.1 µM [inhibitor, partial curve, poor fit]
59 | Cc1ccc(C2Cn3nnc(-c4noc(-c5ccccn5)n4)c3CO2)cc1 (stereo not drawn) | inactive
60 | COc1ccc(-c2cc(-c3cnc4[nH]ccc4c3)cn3cncc23)cn1 | active: 39.8 µM
61 | CC(C)(C)OC(=O)N1CC(c2cncnc2)C1 | inactive
62 | COc1ccc(Cl)cc1C(=O)N1CCN(c2cc(C(F)(F)F)nc(C)n2)CC1 | inconclusive: 35.5 µM [inhibitor, partial curve, poor fit]
63 | COc1ccc2nc(CO[C@H]3CN(Cc4cn(C)c5ccccc45)C[C@H]3F)[nH]c2c1 | inconclusive: 63.1 µM [inhibitor, partial curve, poor fit]
